Data taken from article PMC10017685 (Nature Communications, 2023).
Read-outs that look alike come from different tables or passages of the source. Peptide text beside a SMILES is read from it.

Key:
Sheep red blood cells = assay: Hemolysis assay (HC50); type: cell-based; settings: for HC50 (µM/ml): sheep erythrocytes, recalculated from μg/mL values, estimated as in https://pubmed.ncbi.nlm.nih.gov/29307075/; for HC50: sheep red blood cells 4% (v/v) in PBS, peptides 1-[…], 60 min at 37 °C, hemoglobin release at 590 nm, 1% Triton-X 100 = 100% hemolysis, triplicate, HC50 by ic50.tk
Experimental: The hemolysis assay was conducted according to the procedure described previously. Sheep red blood cells (Defibrillated Sheep Blood, Graso, Poland) were used. […] Then the solution of RBCs was added to each well (100 μL with a 4% concentration of erythrocytes (v/v). The control wells for 0 and 100% hemolysis were also prepared: RBCs suspended in PBS and 1% of Triton-X 100, respectively. After that the plates were incubated for 60 min at 37 °C and then centrifuged at 800 × g for 10 min at 4 °C (Sorvall ST 16R Centrifuge, Thermo Scientific). The supernatant was carefully […] to new microtiter plates and the release of hemoglobin was measured at 590 nm (Multiskan™ GO Microplate Spectrophotometer, Thermo Scientific). Hemolysis for each concentration was calculated as the percentage of control with 100% hemolysis. All experiments were conducted in triplicate. The final values of HC50 were computed using ic50.tk tool.

P. aeruginosa ATCC 9027 = type: cell-based, Pseudomonas aeruginosa; settings: for P. aeruginosa ATCC 9027 MIC: second experimental round, broth microdilution (CLSI), Mueller-Hinton Broth, 0.5 × 10^5 CFU/mL, 1-[…], 18 h at 37 °C
Experimental: (§1) Fresh cultures were used in antimicrobial assay. […] Moreover MBC was evaluated. […] All experiments were conducted in triplicate.

[1] = tested on: A. baumannii ATCC BAA 1605; type: cell-based, Acinetobacter baumannii; settings: for A. baumannii ATCC BAA 1605 MIC: second experimental round, broth microdilution (CLSI), Mueller-Hinton Broth, 0.5 × 10^5 CFU/mL, 1-[…], 18 h at 37 °C
Experimental: as §1

S. aureus ATCC 33591 = type: cell-based, Staphylococcus aureus
Experimental: as §1

E. coli ATCC 25922 = type: cell-based, Escherichia coli
Experimental: as §1

E. coli ATCC 43827 = type: cell-based, Escherichia coli
[2] = second round, MIC well and two higher concentrations seeded on agar plates, no visible colonies, triplicate
[3] = second experimental round, broth microdilution (CLSI), Mueller-Hinton Broth, 0.5 × 10^5 CFU/mL, 1-[…], 18 h at 37 °C, triplicate

SMILES | HC50 (µM/ml) (Sheep red blood cells) | P. aeruginosa ATCC 9027 MIC (P. aeruginosa ATCC 9027; triplicate) [µg/mL] | P. aeruginosa ATCC 9027 MBC (P. aeruginosa ATCC 9027; [2]) [µg/mL] | A. baumannii ATCC BAA 1605 MIC ([1]; triplicate) [µg/mL] | A. baumannii ATCC BAA 1605 MBC [1, 2] [µg/mL] | S. aureus ATCC 33591 MIC (S. aureus ATCC 33591; [3]) [µg/mL] | S. aureus ATCC 33591 MBC (S. aureus ATCC 33591; [2]) [µg/mL] | E. coli ATCC 25922 MIC (E. coli ATCC 25922; [3]) [µg/mL] | E. coli ATCC 25922 MBC (E. coli ATCC 25922; [2]) [µg/mL] | E. coli ATCC 43827 MIC (E. coli ATCC 43827; [3]) [µg/mL] | E. coli ATCC 43827 MBC (E. coli ATCC 43827; [2]) [µg/mL] | HC50 (Sheep red blood cells) [µg/mL] | further results
CC[C@H](C)[C@H](NC(=O)[C@H](CCCNC(=N)N)NC(=O)CN)C(=O)N[C@@H](CC(C)C)C(=O)N[C@@H](CCCCN)C(=O)N[C@@H](Cc1ccccc1)C(=O)N[C@H](C(=O)N[C@@H](CCCCN)C(=O)N[C@@H](CCCCN)C(=O)N[C@@H](C)C(=O)N[C@@H](Cc1c[nH]c2ccccc12)C(=O)N[C@@H](CCCNC(=N)N)C(=O)N[C@@H](CCCCN)C(=O)N[C@H](C(=O)N[C@@H](Cc1c[nH]cn1)C(=O)N[C@@H](CC(C)C)C(=O)N[C@@H](CCCCN)C(=O)N[C@@H](Cc1ccccc1)C(=O)N[C@@H](CC(=O)O)C(=O)N[C@@H](CCCCN)C(N)=O)[C@@H](C)CC)[C@@H](C)CC [Ratigan] | >140 | 32 | 64 | 8 | 8 | 64 | 64 | 32 | 32 | 4 | 4 |  | 
CC[C@H](C)[C@H](N)C(=O)NCC(=O)N[C@@H](CCCCN)C(=O)N[C@@H](CC(C)C)C(=O)N[C@@H](Cc1ccccc1)C(=O)N[C@@H](CCCCN)C(=O)N[C@@H](CCCNC(=N)N)C(=O)N[C@H](C(=O)N[C@H](C(=O)N[C@@H](CCC(=O)O)C(=O)N[C@@H](CCCNC(=N)N)C(=O)N[C@H](C(=O)N[C@@H](CCCCN)C(=O)N[C@@H](CCCNC(=N)N)C(=O)N[C@@H](Cc1ccccc1)C(=O)N[C@@H](CC(C)C)C(=O)N[C@@H](CCCNC(=N)N)C(=O)N[C@H](C(=O)N[C@@H](CC(C)C)C(=O)N[C@@H](CC(C)C)C(=O)N[C@@H](CCCNC(=N)N)C(=O)N[C@H](C(=O)N[C@@H](CC(C)C)C(=O)N[C@@H](CCCNC(=N)N)C(N)=O)[C@@H](C)CC)C(C)C)[C@@H](C)CC)C(C)C)[C@@H](C)CC [OP-145-TII4] | 40 | 256 | 256 | 256 | 256 | 128 | 256 | 256 | 256 | 256 | 256 | 166 | S. aureus ATCC 33591 MBC (S. aureus ATCC 33591): 256 µg/mL; E. coli ATCC 25922 MBC (E. coli ATCC 25922): 256 µg/mL; E. coli ATCC 25922 MIC (E. coli ATCC 25922): 256 µg/mL; E. coli ATCC 43827 MBC (E. coli ATCC 43827): 256 µg/mL; E. coli ATCC 43827 MIC (E. coli ATCC 43827): 256 µg/mL
CC[C@H](C)[C@H](NC(=O)[C@H](CCC(=O)O)NC(=O)[C@H](Cc1c[nH]cn1)NC(=O)[C@H](Cc1ccccc1)NC(=O)[C@H](CCCCN)NC(=O)[C@H](CCCNC(=N)N)NC(=O)[C@H](Cc1c[nH]c2ccccc12)NC(=O)[C@H](C)NC(=O)[C@H](CCCCN)NC(=O)[C@H](CCCCN)NC(=O)[C@@H](NC(=O)[C@@H](NC(=O)[C@H](CCCCN)NC(=O)[C@H](CC(N)=O)NC(=O)[C@H](CC(C)C)NC(=O)[C@H](Cc1c[nH]c2ccccc12)NC(=O)CN)[C@@H](C)CC)[C@@H](C)CC)C(=O)N[C@@H](Cc1ccccc1)C(=O)N[C@@H](CO)C(=O)N[C@@H](CCCCN)C(N)=O [Sophieganan] | 49 | 32 | 32 |  | 2 |  | 4 |  | 8 | 8 | 8 |  | 
CC[C@H](C)[C@H](NC(=O)[C@@H](NC(=O)CN)C(C)C)C(=O)N[C@@H](CC(=O)O)C(=O)N[C@@H](Cc1ccccc1)C(=O)N[C@@H](CC(C)C)C(=O)N[C@@H](CCCCN)C(=O)NCC(=O)N[C@@H](C)C(=O)N[C@@H](C)C(=O)N[C@@H](CCCCN)C(=O)N[C@@H](CC(=O)O)C(=O)N[C@@H](CC(C)C)C(=O)N[C@@H](C)C(=O)NCC(=O)N[C@@H](Cc1c[nH]cn1)C(=O)N[C@H](C(=O)N[C@@H](C)C(=O)N[C@H](C(=O)N[C@@H](CCCCN)C(=O)N[C@H](C(=O)N[C@H](C(=O)N[C@@H](CCCCN)C(=O)N[C@@H](CCCCN)C(=O)N[C@@H](CC(C)C)C(N)=O)[C@@H](C)CC)C(C)C)[C@@H](C)O)C(C)C [Syphaxin-TIII5] | 151 | 512 | >512 | 64 | 64 | >512 | >512 | 256 | 512 | 512 | 512 | >512 | 
CC[C@H](C)[C@H](N)C(=O)N[C@@H](CC(C)C)C(=O)N[C@@H](CCCNC(=N)N)C(=O)N[C@@H](Cc1c[nH]c2ccccc12)C(=O)N1CCC[C@H]1C(=O)N[C@@H](Cc1c[nH]c2ccccc12)C(=O)N[C@@H](Cc1c[nH]c2ccccc12)C(=O)N1CCC[C@H]1C(=O)N[C@@H](Cc1c[nH]c2ccccc12)C(=O)N[C@@H](CCCNC(=N)N)C(=O)N[C@@H](CCCNC(=N)N)C(=O)N[C@@H](CCCCN)C(N)=O [Omiganan, reference compound] (H-ILRWPWWPWRRK-NH2) |  |  |  |  |  |  |  |  |  |  |  |  | P. aeruginosa ATCC 9027 MBC (P. aeruginosa ATCC 9027; ATCC 9027, 24 h): 256 µg/mL; A. baumannii ATCC BAA 1605 MBC ([1]; ATCC BAA 1605, 24 h): 128 µg/mL; S. aureus ATCC 33591 MBC (S. aureus ATCC 33591; ATCC 33591, 24 h): 64 µg/mL; S. aureus ATCC 33591 MIC (S. aureus ATCC 33591; ATCC 33591, 24 h): 64 µg/mL; E. coli ATCC 25922 MBC (E. coli ATCC 25922; ATCC 25922, 24 h): 64 µg/mL; E. coli ATCC 25922 MIC (E. coli ATCC 25922; ATCC 25922, 24 h): 32 µg/mL; E. coli ATCC 43827 MBC (E. coli ATCC 43827; ATCC 43827, 24 h): 32 µg/mL; E. coli ATCC 43827 MIC (E. coli ATCC 43827; ATCC 43827, 24 h): 32 µg/mL
